According to PubChem BioAssay AID488969 (Vanderbilt High Throughput Screening Facility, 2010):
Whole data set: some 110,000 compounds, median “z-score” near -0.1, cut for the highest 2% near 2. Some of the results follow. Active and inactive are the calls of the source.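 The calls were made as follows: active = z-score in the third read window above 3 or below -3; inactive = the rest.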

Each molecule was assayed against Metabotropic glutamate receptor 8 (Rattus norvegicus) (UniProt P70579) (assay: mGluR8 Gi/Go-coupled signaling modulation – cell-based, rat, thallium flux, HTS, primary screen (AID 488969)). Settings: HEK293 rat mGluR8, GIRK (G protein-gated inwardly rectifying potassium channel) thallium flux, FluoZin2; at 10 µM; stronger effect = higher value; submaximal glutamate (EC20) added with thallium.
Chain of UniProt P70579 (P70579 whole entry, looked up): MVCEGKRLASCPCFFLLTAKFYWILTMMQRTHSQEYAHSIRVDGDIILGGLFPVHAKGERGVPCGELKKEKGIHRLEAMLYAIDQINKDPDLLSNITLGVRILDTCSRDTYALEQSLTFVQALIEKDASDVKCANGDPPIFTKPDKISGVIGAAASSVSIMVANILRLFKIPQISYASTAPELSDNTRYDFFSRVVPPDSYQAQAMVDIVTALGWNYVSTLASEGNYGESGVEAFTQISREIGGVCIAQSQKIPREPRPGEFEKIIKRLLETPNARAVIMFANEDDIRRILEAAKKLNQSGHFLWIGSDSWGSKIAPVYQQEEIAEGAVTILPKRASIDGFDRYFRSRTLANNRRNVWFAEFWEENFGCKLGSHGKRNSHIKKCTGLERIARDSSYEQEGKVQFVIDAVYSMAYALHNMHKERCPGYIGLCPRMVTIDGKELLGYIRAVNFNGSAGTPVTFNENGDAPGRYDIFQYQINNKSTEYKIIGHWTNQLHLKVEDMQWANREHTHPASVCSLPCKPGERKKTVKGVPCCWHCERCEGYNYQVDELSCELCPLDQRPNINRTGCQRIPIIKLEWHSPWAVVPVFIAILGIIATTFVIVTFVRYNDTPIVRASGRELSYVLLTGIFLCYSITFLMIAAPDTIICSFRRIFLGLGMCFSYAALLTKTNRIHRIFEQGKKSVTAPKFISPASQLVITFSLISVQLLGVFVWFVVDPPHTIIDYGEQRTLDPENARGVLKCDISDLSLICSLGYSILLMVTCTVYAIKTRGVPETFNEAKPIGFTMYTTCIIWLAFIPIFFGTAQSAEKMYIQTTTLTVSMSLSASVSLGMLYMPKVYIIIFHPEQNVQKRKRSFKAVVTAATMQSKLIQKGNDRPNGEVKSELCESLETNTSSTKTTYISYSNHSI

| SMILES | z-score |
| --- | --- |
| Cn1nc(CC(=O)N2CCN(c3ccccc3)CC2)c2ccccc2c1=O | 0.246 |
| CCOC(=O)C1=NNC2C(=O)N(CC)C(=O)C12 (stereo unspecified) | 0.457 |
| Nc1nc(-c2ccc(Cl)cc2)cc(C(F)(F)F)n1 | -0.248 |
| O=C1CCCC2=C1C(c1ccccc1)CC(=O)N2c1ccccc1 (stereo unspecified) | -0.00614 |
| COCCN(C(=O)C(C)C)c1nnc(-c2cccc(C)c2)s1 | 0.914 |
| O=C(COc1ccccc1)NC1CCN(Cc2ccccc2)CC1 | -0.351 |
| CCCSc1nnc(Sc2nnnn2-c2ccccc2)s1 | 1.05 |
| CCNCc1cc(OCC)c(OCC(=O)NCCc2ccccc2)cc1Cl | 0.21 |
| S=C(Nc1ccccc1)Nc1ccc(OCc2ccccc2)cc1 | -0.0124 |
| COc1cccc(NS(=O)(=O)c2cc(C)sc2C)c1 | -0.166 |
| COc1cc(NC(=O)C2CCCCN2)ccc1OCC(C)C (stereo unspecified) | 0.424 |
| Cc1ccc(C(=O)OCCc2c(C)[nH]n(-c3ccccc3)c2=O)cc1 | -0.419 |
| CCOC(=O)C(CC)Sc1nc(N)c(NC(=O)c2ccc(OC)c(OC)c2)c(=O)[nH]1 (stereo unspecified) | 0.132 |
| O=C(Nc1nnc(SCc2ccc(F)cc2)s1)c1ccc2ncsc2c1 | 0.249 |
| COc1ccc(C(=O)Nc2ccc(OCC(F)(F)C(F)F)c(C(F)(F)F)c2)cc1OC | -0.17 |
| CCOc1ccc(N(CC(=O)NC2CCCC2)S(=O)(=O)c2c(C)[nH]c(=O)[nH]c2=O)cc1 | -0.16 |
| COCCn1c(C)cc(C(=O)CSc2nc(C)cc(C)c2C#N)c1C | -1.5 |
| CN1/C(=C\C(=O)Nc2ccc(Cl)cc2)C(C)(C)c2ccccc21 | 0.0314 |
| O=C(CSc1nc2ccccc2o1)NC(=O)NCc1ccccc1 | -0.144 |
| COC(=O)C1C2C=CC(C3CC23)C1C(=O)OCC(=O)c1ccccc1 (stereo unspecified) | -0.181 |
| Cc1ccccc1C(=O)NCCc1nnc(SCC(=O)Nc2nc(-c3ccccc3)cs2)n1C | 0.0767 |
| C/C(=N\NC(=O)C1COc2ccccc2O1)c1ccc(C)o1 (stereo unspecified) | -0.0164 |
| O=C(CSc1nnc(Cc2ccccc2)n1C1CCCCC1)N1CCOCC1 | -0.193 |

| SMILES | z-score |
| --- | --- |
| Cc1cccc(C)c1OCC(=O)OCC(=O)c1ccc2c(c1)NC(=O)CO2 | -0.0701 |
| CN1CCC(=NNC(=O)c2ccco2)CC1 | 0.08 |
| Cc1noc(C)c1CSc1ncnc2sc(C)c(C)c12 | -0.506 |
| Cn1c(Cc2cccc3ccccc23)nnc1SCC(=O)N1CCN(c2ccccc2)CC1 | -0.22 |
| COc1ccc(CCNC(=O)C2CCN(S(=O)(=O)c3ccc(OC)c(OC)c3)CC2)cc1 | -0.362 |
| COc1cc(/C=N/NC(=O)CCN2CCN(Cc3ccccc3)CC2)cc(OC)c1OC | -0.854 |
| Cc1ccc(OCC(=O)Nc2ccc(C)c(S(=O)(=O)N3CCCCC3)c2)c([N+](=O)[O-])n1 | active: 6.89 |
| CCCNC(=O)CSc1nc(-c2cccs2)cc(C(F)(F)F)n1 | -0.0921 |
| Cc1ccc(NC(=O)N(CCCN2CCOCC2)Cc2cccnc2)cc1C | 0.519 |
| O=C(C1CC1)N1CCc2[nH]c3ccccc3c2C1 | -0.366 |
| CCC(C)NC(=O)CSc1ccc(Cl)cc1 (stereo unspecified) | -0.0343 |
| CCOCCNC(=O)c1ccc2c3c(cccc13)CC2 | -0.367 |
| COc1cc2cc(CN(CCc3cccc(C)c3)C(=S)NCCCN(C)C)c(=O)[nH]c2cc1OC | -0.102 |
| Cc1ccc(C2(CCN)CCOC(C(C)C)C2)cc1 (stereo unspecified) | 0.445 |
| Clc1cccc(-c2nnc(SC/C=C/c3ccccc3)n2Cc2ccco2)c1 | -0.854 |
| Oc1ccc2[nH]cnc2c1CN1CCCCC1 | 0.149 |
| CCOc1ccc(NC(=O)CCSc2nnc(C)s2)cc1 | -0.0489 |
| COc1c(Cl)cc(C(=O)Nc2ccccc2-c2ccccc2)cc1Cl | -0.38 |
| CC1(C)Cc2ccccc2-c2nnc(-c3ccc4ccccc4n3)n21 | -0.669 |
| CCOC(=O)C1=C(N)N2C(=O)CSC2=C(C(=O)OC)C1 | -0.493 |
| CN(C)Cc1nc2c([nH]1)c(=O)n(C)c(=O)n2C | -0.0706 |
| CC1=Nc2ccccc2/C1=C\c1sc(Nc2ccc(C)cc2)nc1O | -0.00838 |
| O=C(c1cc([N+](=O)[O-])ccc1N1CCCCC1)N1CCCC1 | 0.437 |

| SMILES | z-score |
| --- | --- |
| COc1ccc(-c2noc(N3CCC(C(=O)N4CCN(c5ccccn5)CC4)CC3)n2)cc1 | 0.828 |
| Fc1ccc(CSc2ccc(-c3cccs3)nn2)cc1 | 0.256 |
| COc1ccc(N2C(=O)CC(N3CCC(c4nc5ccccc5[nH]4)CC3)C2=O)cc1 (stereo unspecified) | 0.404 |
| CCc1ccc(NC(=O)N(Cc2ccco2)C(C)c2cccs2)cc1 (stereo unspecified) | -0.86 |
| CCn1nc(C(=O)Nc2cccc(C(F)(F)F)c2)c(Cl)c1Cl | -0.195 |
| CCCCCOc1ccc(C2NC(=O)NC2=O)cc1 (stereo unspecified) | -0.531 |
| CC(C)N(C(=O)CSc1nnc(CNc2ccc(F)cc2)o1)C(C)C | 0.768 |
| O=C1NC(=S)N/C1=C/c1cccc([N+](=O)[O-])c1O | -0.173 |
| [O-][n+]1onc2c1CCc1nnccc1-2 | 0.0617 |
| N#CC(C#N)=C1CCc2ccccc2N1 | 0.151 |
| COc1ccc(-c2nnc3n2-c2ccccc2SC3)cc1OC | 0.00806 |
| CCc1cccc2c(C=C(C#N)C#N)cn(CC(=O)N3CCCC3)c12 | 0.0864 |
| CC1=CCC(C(=O)O)(C(=O)N/N=C/c2cccs2)C(c2ccc([N+](=O)[O-])cc2)C1 (stereo unspecified) | 0.0201 |
| CCOc1ccccc1N(C(=O)Nc1cccc(Cl)c1)C1=NC(C)CS1 (stereo unspecified) | -0.262 |
| CCN1CCN(c2ccc(NC(=O)c3cccc(OCc4ccccc4)c3)cc2)CC1 | 0.152 |
| CCCOc1ccc(CCN2CCC(=O)NC2=O)cc1C | -0.241 |
| CCOC(=O)CCP(=O)(O)C(O)(c1ccccc1)c1ccccc1 | 0.107 |
| CCCN(CCC)S(=O)(=O)c1ccc(NS(C)(=O)=O)cc1 | 0.465 |
| Cn1nnnc1SCC(=O)NCc1cccc(C(=O)O)c1 | -0.667 |
| COc1ccccc1C(=O)Nc1ncc2c(n1)CC(c1ccco1)CC2=O (stereo unspecified) | -0.749 |
| CCN1CCN(CC(=O)Nc2cc(F)ccc2C)CC1 | 0.149 |
| CN(C)S(=O)(=O)NCc1ccc2c(c1)OCO2 | -0.0624 |
| CN(Cc1ccccc1)Cc1c[nH]c2ccccc12 | 0.302 |

| SMILES | z-score |
| --- | --- |
| CCCCCC(C)n1[nH]c(=O)c2c(C)cc(C)nc21 (stereo unspecified) | -0.343 |
| Cn1cnnc1Sc1ccc(C(=O)OCC(=O)Nc2cc(Cl)cc(Cl)c2)cc1[N+](=O)[O-] | -0.215 |
| Cc1ccc(OCC(=O)NCC(=O)Nc2ccc(F)cc2)c([N+](=O)[O-])n1 | -0.232 |
| CCOC(=O)c1cc(C)[nH]c(=S)c1C#N | -0.21 |
| O=C(CSc1ncn[nH]1)c1cccc([N+](=O)[O-])c1 | -0.14 |
| Cc1ccc(CSc2ccc(-c3ccc4c(c3)OCO4)nn2)cc1 | -0.188 |
| CC(C)(C)c1ccc(CS(=O)(=O)CC2(O)CCN(C(=O)c3cccc(C(F)(F)F)c3)CC2)cc1 | -0.302 |
| COC(=O)c1sccc1NC(=O)COc1ccccc1Cl | -0.212 |
| O=C(CCCOc1ccc(Cl)cc1Cl)NCC1CCCO1 (stereo unspecified) | -0.403 |
| O=c1c2c(nc3c(-c4ccccc4)c[nH]n13)CCC2 | -0.819 |
| CCC1CCCCN1C(=O)CSc1nnc(-c2ccc3c(c2)OCCO3)o1 (stereo unspecified) | 0.663 |
| COc1ccc(C2C(C#N)=C(N)N(Nc3ccccc3)C3=C2C(=O)CC(C)(C)C3)cc1C (stereo unspecified) | 0.00246 |
| Cc1ccccc1NC(=O)Nc1nc2ccc(S(C)(=O)=O)cc2s1 | 0.0297 |
| CC(C)(C)c1ccc(CNc2cc(N3CCOCC3)ccc2[N+](=O)[O-])cc1 | -0.109 |
| Cc1ccc(CNC(=O)CSc2nc3ccccc3c(=O)n2CCCO)cc1 | 0.714 |
| CCOC(=O)c1c(-c2ccc(OC)cc2)csc1NC(=O)CCN1C(=O)c2ccccc2C1=O | -0.295 |
| CCOc1ccc(C2=NNC(c3cccs3)=Nc3ccc(OC)cc32)cc1 | active: 3.11 |
| O=C(CN1CCN(c2ccc(F)cc2)CC1)N1N=CCC1c1ccccc1 (stereo unspecified) | -0.196 |
| COc1cccc(N2CCN(C(=O)CN(C)S(=O)(=O)c3ccc4c(c3)CCC(=O)N4)CC2)c1 | -0.236 |
| Cn1ncc(Cl)c1C(=O)Nc1cc(C(F)(F)F)ccc1F | 0.242 |
| Cc1c(NC(=O)CSc2nnc3c4ccccc4n(CCc4ccccc4)c3n2)c(=O)n(-c2ccccc2)n1C | -0.952 |
| Cn1c(=O)n(CCc2ccccc2)c(=O)c2c1nc1n2CCN1Cc1ccco1 | -0.632 |
| CC1CCCN(C(=O)Cn2c(=O)oc3ccccc32)C1 (stereo unspecified) | -0.144 |

| SMILES | z-score |
| --- | --- |
| COC(=O)C1=NNCC12CC(=O)N(c1ccc(Br)cc1)C2=O (stereo unspecified) | -0.0964 |
| CCOc1ccc(S(=O)(=O)n2cc(-c3ccc(F)cc3)c(N)n2)cc1 | 0.129 |
| CC1(C)CC(=O)C(N=Nc2cc(Cl)c(Cl)c(Cl)c2)=C(O)C1 | -0.43 |
| Cc1cc(C)n(-c2cc(Cl)cc(Cl)c2)c(=O)c1C#N | -0.0415 |
| COc1ccc(-c2nnn(CC(=O)NCCc3c[nH]c4ccccc34)n2)cc1OC | -0.399 |
| COc1cccc(/C=N/N2CCN(c3ccccc3OC)CC2)c1 | 0.17 |
| O=C(Oc1ccc(-c2ccccc2)cc1)N1CCCCC1 | -0.0639 |
| CC(C)OC(=O)c1c(NC(=O)c2ccco2)sc2c1CCCCC2 | -0.501 |
| COc1ccc2nc(NC(=O)CSc3nccc(C)n3)sc2c1 | 1.81 |
| COc1ccc(NC(=O)Cn2c(=O)n(Cc3ccco3)c(=O)c3ccccc32)cc1 | -0.236 |
| Cc1c(NC(=O)NCCN2C(=O)C3C4C=CC(C4)C3C2=O)c(=O)n(-c2ccccc2)n1C (stereo unspecified) | -0.389 |
| O=C(C[n+]1ccc(C(=O)N/N=C/c2ccc(Br)cc2)cc1)c1ccccc1 | 0.236 |
| CCN(CCCNC(=O)CN1C(=O)COc2ccccc21)c1cccc(C)c1 | -0.133 |
| COc1ccccc1C(=O)C(O)c1ccccc1OC (stereo unspecified) | -0.247 |
| Cc1ccc2nc(-c3ccc(NS(=O)(=O)c4ccc(F)c(F)c4)cc3)sc2c1 | -1.63 |
| CCN(CC)S(=O)(=O)c1ccc2c(c1)C(=NO)c1cc(S(=O)(=O)N(CC)CC)ccc1-2 | -0.117 |
| Cc1cc(C)cc(-n2c(N)c(C(=O)Nc3c(C)n(C)n(-c4ccccc4)c3=O)c3nc4ccccc4nc32)c1 | 0.0565 |
| O=C(Nc1cccnc1)c1ccccc1F | 0.0767 |
| Cc1ccc(NS(=O)(=O)c2cccc(C(=O)N3CCOCC3)c2)cc1 | 0.907 |
